# Results taken from PubChem BioAssay AID504332 (National Center for Advancing Translational Sciences (NCATS), 2011).
# Among all 350,000 compounds or so, about 31,000 (8.9%) were called active. Inconclusive results, whose numbers are uncertain, are shown with a selection of clear calls. The call rests on the fitted dose curve; in most records, active means well fitted inhibition curve with a large enough effect; inconclusive means small, poorly fitted or top-dose-only effect; inactive means no such curve, though single readings can be large or run the other way. Potencies beside an inconclusive call are fits to weak or partial responses and may not hold up.
# Target: Histone-lysine N-methyltransferase EHMT2 (Homo sapiens) (UniProt Q96KQ7)
# Experiment: qHTS Assay for Inhibitors of Histone Lysine Methyltransferase G9a; further: nearly all actives have a fitted effect of over 75% in size
# Details: G9a H3K9 monomethylation, AlphaScreen, 2 h; activity, negative = inhibition: at 59 µM (top of the series) unless noted
# How it was run: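 G9a (20 nM) preincubated 15 min RT with compounds, then 500 nM biotinylated H3K9 peptide and 20 uM SAM added; 2 h RT reaction. Monomethyl-H3K9 product detected by AlphaScreen with anti-H3K9me1 antibody, streptavidin donor and anti-rabbit IgG acceptor beads.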
# On the % scale 0 is the no-effect control and ±100 the full control effect; potency means the concentration at half of the fitted maximal effect; tags describe the fitted curve by direction and shape.
# UniProt Q96KQ7, sequence (Q96KQ7 whole entry, looked up): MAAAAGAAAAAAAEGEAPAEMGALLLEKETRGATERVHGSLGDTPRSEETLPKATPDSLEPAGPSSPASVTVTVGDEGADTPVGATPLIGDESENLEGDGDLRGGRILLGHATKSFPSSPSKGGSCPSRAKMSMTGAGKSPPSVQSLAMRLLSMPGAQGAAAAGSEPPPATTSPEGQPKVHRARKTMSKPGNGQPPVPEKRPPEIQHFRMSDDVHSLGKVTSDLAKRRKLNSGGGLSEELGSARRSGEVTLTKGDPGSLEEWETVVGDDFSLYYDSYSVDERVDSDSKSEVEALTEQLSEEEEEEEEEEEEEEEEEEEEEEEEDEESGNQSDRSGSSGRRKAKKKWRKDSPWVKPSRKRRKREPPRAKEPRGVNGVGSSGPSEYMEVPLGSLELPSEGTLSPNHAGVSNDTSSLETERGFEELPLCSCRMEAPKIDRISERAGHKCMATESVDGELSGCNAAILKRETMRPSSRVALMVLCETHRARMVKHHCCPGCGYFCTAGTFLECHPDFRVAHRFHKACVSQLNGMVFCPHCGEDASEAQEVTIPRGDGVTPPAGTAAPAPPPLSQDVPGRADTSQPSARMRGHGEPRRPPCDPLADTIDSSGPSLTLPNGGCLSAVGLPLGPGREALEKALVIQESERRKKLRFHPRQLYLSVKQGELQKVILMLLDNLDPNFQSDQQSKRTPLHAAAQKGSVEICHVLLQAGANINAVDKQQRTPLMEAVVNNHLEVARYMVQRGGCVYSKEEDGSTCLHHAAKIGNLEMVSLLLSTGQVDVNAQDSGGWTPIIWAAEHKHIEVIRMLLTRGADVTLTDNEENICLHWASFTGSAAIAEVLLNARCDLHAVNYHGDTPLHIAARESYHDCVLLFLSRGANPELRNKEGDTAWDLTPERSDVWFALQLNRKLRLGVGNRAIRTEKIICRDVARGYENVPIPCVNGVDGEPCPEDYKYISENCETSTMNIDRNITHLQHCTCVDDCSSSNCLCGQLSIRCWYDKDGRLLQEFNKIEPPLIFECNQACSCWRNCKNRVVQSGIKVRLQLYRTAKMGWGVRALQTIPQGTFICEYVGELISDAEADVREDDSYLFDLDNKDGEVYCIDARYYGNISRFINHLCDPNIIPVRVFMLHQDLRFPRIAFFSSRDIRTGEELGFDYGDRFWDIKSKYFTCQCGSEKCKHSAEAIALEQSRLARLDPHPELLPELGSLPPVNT
SMILES,Potency,"activity, negative = inhibition"
CCOC(=O)Cc1nn[nH]n1,"inconclusive: 89.1 µM [inhibitor, single point]",–
O=C(CC1SCCNC1=O)Nc1cccc(C(F)(F)F)c1 (stereo not given),"inconclusive: 89.1 µM [inhibitor, single point]",–
COc1cccc(C2C(C(=O)c3sc(C)nc3C)=C(O)C(=O)N2CCN(C)C)c1OC (stereo not given),"inconclusive: 89.1 µM [inhibitor, single point]",–
O=C(O)C1CC=CCC1C(=O)Nc1ccc2c(c1)OCCO2 (stereo not given),"inconclusive: 28.2 µM [inhibitor, single point]",–
CN(C(=O)c1ccc(-c2nn(C)c(=O)c3ccccc23)cc1)c1ccccc1,"inconclusive: 89.1 µM [inhibitor, single point]",–
COc1cc(OC)cc(C(=O)NC(C(=O)Nc2ccc(N3CCOCC3)cc2)C(C)C)c1 (stereo not given),active: 50.1 µM,–
Cc1ccc(/C=C/S(=O)(=O)NCCC(=O)NCc2ccc(F)cc2)cc1,–,inactive: 40.4% [at 12.7 µM]
COc1ccc(S(=O)(=O)c2c(N)n(Cc3ccco3)c3nc4ccccc4nc23)cc1,active: 44.7 µM,–
C/C(=N\N=C(c1ccccc1)c1ccccc1)c1ccco1,–,inactive: -44.5% [at 102 µM]
COc1ccc(CN(C)C(C)C(=O)Nc2ccc(S(=O)(=O)N3CCCC3)cc2)c(OC)c1OC (stereo not given),"inconclusive: 1.78 µM [inhibitor, partial curve, poor fit]",–
COc1ccc(S(=O)(=O)NCC(c2cccnc2)N2CCN(c3ccc(F)cc3)CC2)cc1C (stereo not given),"inconclusive: 22.4 µM [inhibitor, single point]",–
Cc1ccc(N(CN2C(=O)c3ccccc3C2=O)C(=O)c2ccc([N+](=O)[O-])cc2[N+](=O)[O-])cc1,"inconclusive: 31.6 µM [inhibitor, single point]",–
CC(=O)N(Cc1ccco1)c1nc(C(=O)Nc2ccc(Cl)cc2)c(C)s1,"inconclusive: 35.5 µM [inhibitor, single point]",–
CCOc1cc(N2CCOCC2)c(OCC)cc1NC(=O)c1ccco1,"inconclusive: 44.7 µM [inhibitor, partial curve]",–
CCOc1ccc(NC(=O)N2CCC(c3nc4ccccc4[nH]3)CC2)cc1,"inconclusive: 79.4 µM [inhibitor, single point]",–
Cc1sc2nc(SCc3ccc(C(=O)O)cc3)n(Cc3ccco3)c(=O)c2c1C,"inconclusive: 22.4 µM [inhibitor, full curve]",–
O=C(CN(Cc1ccccc1)S(=O)(=O)c1ccc2c(c1)OCCO2)N/N=C/c1cccc(Br)c1,–,inactive: 8.66%
CCN(CC)CCOC(=O)c1ccc(NC(=O)CCNC(=O)Cn2ccc3ccccc3c2=O)cc1,"inconclusive: 31.6 µM [inhibitor, partial curve, poor fit]",–
Nc1c(C(=O)NC2CCCC2)sc2nc(-c3cccs3)ccc12,–,inactive: -48.4% [at 2.33 µM]
O=C(O)CN1C(=O)SC(Nc2ccc(Cl)cc2)C1=O (stereo not given),–,inactive: -4.83% [at 102 µM]
O=c1[nH]c2cccnc2n1Cc1ccccc1,"inconclusive: 1.78 µM [inhibitor, partial curve, poor fit]",–
COc1ccc(OC)c(NC(=O)c2oc3c(c2C)C(O)CC(C)(C)C3)c1 (stereo not given),"inconclusive: 79.4 µM [inhibitor, partial curve, poor fit]",–
CC1=NN(C(N)=S)C(=O)C1N=Nc1ccc([N+](=O)[O-])cc1 (stereo not given),active: 79.4 µM,–
Cc1ccc(C(=O)CC(C(=O)O)n2cccn2)cc1 (stereo not given),active: 50.1 µM,–

SMILES,Potency,"activity, negative = inhibition"
O=C(COC(=O)C1CC1)NCCNC(=O)COC(=O)C1CC1,"inconclusive: 79.4 µM [inhibitor, partial curve, poor fit]",–
CCSc1nc2nn(-c3ccccc3)c(=O)c-2c2n1CCCCC2,–,inconclusive: -71.7% [inhibitor]
CC(=O)c1sc(NC(=O)C2CCN(C(=O)c3ccc(F)cc3)CC2)nc1-c1ccccc1,active: 44.7 µM,–
NC(=O)CC(NC(=O)Cc1ccc(Br)cc1)c1ccc(NCCc2cccc(F)c2)c([N+](=O)[O-])c1 (stereo not given),–,inconclusive: -78.4% [inhibitor]
O=C(Nc1nc(-c2ccccc2)cs1)C1CCCCN1S(=O)(=O)c1ccc(Cl)cc1 (stereo not given),"inconclusive: 6.31 µM [inhibitor, single point]",–
Cc1c(CC(=O)N[C@@H](C)C(=O)O)c(=O)oc2c(C)c3occ(-c4ccccc4)c3cc12,"inconclusive: 89.1 µM [inhibitor, single point]",–
COc1ccc2[nH]c(C(=O)O)c(NS(=O)(=O)c3ccc(OC)c(OC)c3)c2c1,"inconclusive: 3.98 µM [inhibitor, partial curve, poor fit]",–
CCOC(=O)C1CCCN(C(=O)COC(=O)c2ccc(C#N)cc2)C1 (stereo not given),"inconclusive: 50.1 µM [inhibitor, partial curve, poor fit]",–
CC(C)CNC(=O)N1CCN(S(=O)(=O)c2ccc3c(ccn3C)c2)CC1,"inconclusive: 28.2 µM [inhibitor, single point]",–
CCOC(=O)c1cnn2c(N)c(C#N)cnc12,active: 44.7 µM,–
CCOc1ccc(S(=O)(=O)NCCC(=O)NCc2ccco2)cc1,–,inactive: 3.66%
C/C(=C\C(=O)OCCCCCCCCC(=O)O)C[C@@H]1OC[C@H](C[C@@H]2O[C@H]2[C@@H](C)[C@H](C)O)[C@@H](O)[C@H]1O,–,inactive: -9.2% [at 12.7 µM]
CC1=C(C(=O)OCC2CCCO2)C(c2ccncc2)C2=C(CC(C)(C)CC2=O)N1 (stereo not given),–,inactive: -2.09%
COc1ccc(N2C(=O)/C(=C/c3ccc([N+](=O)[O-])cc3)N=C2C)cc1,"inconclusive: 50.1 µM [inhibitor, partial curve]",–
CCCC[n+]1c(-c2ccc(Cl)cc2Cl)csc1Nc1ccccc1,active: 11.2 µM,–
CCN1C(=O)C(C(=O)c2ccccc2)SC1=S (stereo not given),active: 22.4 µM,–
Cc1cc(/C=C2\C(=O)NN(c3ccccc3)C2=O)c(C)n1-c1ccccc1O,–,inactive: 1.5%
O=C(C/C(=N/O)c1ccccc1O)C(F)F,–,inconclusive: -73% [inhibitor]
NC(=O)c1ccc(-c2nnn(CC(=O)N(C3CCCCC3)C3CCS(=O)(=O)C3)n2)cc1 (stereo not given),–,inactive: -2.14%
CC1(C)Cc2c(sc3c2c(=N)n(Cc2ccco2)c(=O)n3CC(=O)Nc2cccc(Cl)c2)CO1,"inconclusive: 25.1 µM [inhibitor, single point]",–
O=C(/C=C/c1ccco1)N1CCc2ccccc21,active: 39.8 µM,–
COc1ccc(Cn2ccnc2SCC(=O)Nc2ccc3c(c2)OCO3)cc1,"inconclusive: 39.8 µM [inhibitor, single point]",–
CCOc1ccc(NC(=S)c2ccncc2)cc1,"inconclusive: 25.1 µM [inhibitor, single point]",–
COc1ccc(N(CC(=O)Nc2ccc(Cc3ccncc3)cc2)S(=O)(=O)c2ccccc2)cc1,–,inactive: -4.71% [at 102 µM]

SMILES,Potency,"activity, negative = inhibition"
CCN(CC)CCN1C(=O)C(=O)/C(=C(/O)c2ccc(OCC(C)C)cc2)C1c1ccncc1 (stereo not given),"inconclusive: 79.4 µM [inhibitor, single point]",–
O=C(COC(=O)c1ccccc1NS(=O)(=O)c1cccs1)NC1CCCCC1,"inconclusive: 0.631 µM [inhibitor, full curve, poor fit]",–
COc1n[nH]c(C(=O)NCc2ccccc2)c1[N+](=O)[O-],active: 56.2 µM,–
CCCCC(=O)Nc1cccc(-c2cn3ccsc3n2)c1,"inconclusive: 79.4 µM [inhibitor, single point]",–
N#Cc1ccc(-c2csc(NC(=O)C3CC3)n2)cc1,–,inactive: -17.7% [at 102 µM]
CCOC(=O)c1c(C)c(C(=O)NC2CCCCC2)c(C)n1CC,–,inactive: 2.62%
Cc1ccc(C2=NN(S(=O)(=O)c3ccccc3)C(c3ccco3)C2)cc1 (stereo not given),–,inactive: -2.02% [at 12.7 µM]
O=C(CNC(=O)c1ccc(Cl)cc1)OCc1nc2ccccc2s1,"inconclusive: 50.1 µM [inhibitor, partial curve]",–
CCOc1ccc(NCC(=O)Nc2ccc(Cl)cc2C)cc1,active: 8.91 µM,–
COc1ccc2nc(N3CCCCC3)c(/C=C3\SC(=S)NC3=O)cc2c1,active: 11.2 µM,–
COP1(=O)C=C[C@H](N(Cc2ccccc2)S(=O)(=O)c2ccccc2[N+](=O)[O-])[C@@H](C)O1 (stereo not given in full),–,inconclusive: -64.1% [inhibitor]
CS/C(=C\[N+](=O)[O-])Nc1ccc(OC(F)(F)F)cc1,active: 50.1 µM,–
N/C(Cc1cccc2ccccc12)=N\OC(=O)c1ccc(Br)o1,active: 44.7 µM,–
COc1cccc(OC)c1OCC(O)CN1CCN(c2ccc(F)cc2)CC1 (stereo not given),"inconclusive: 79.4 µM [inhibitor, single point]",–
CN(c1ccccc1C(=O)O)S(=O)(=O)c1ccc2c3c(cccc13)C(=O)N2,"inconclusive: 39.8 µM [inhibitor, single point]",–
COc1ccccc1CCNC(=O)C(=O)NCC(c1ccco1)S(=O)(=O)c1cccs1 (stereo not given),–,inactive: 3.06%
O=C(Oc1ccccc1C(=O)N1CCOCC1)c1cccc(Br)c1,–,inactive: -3.67% [at 102 µM]
COC(=O)c1ccc(NS(=O)(=O)c2ccc3[nH]c(=O)oc3c2)cc1,–,inactive: -4.51%
Cn1ccc(C(=O)NC(=S)N2CCSCC2)n1,active: 12.6 µM,–
COc1ccc(/C=N/Nc2nncc3ccccc23)cc1,"inconclusive: 25.1 µM [inhibitor, single point]",–
CCN(CC)Cc1ccccc1CNC(=O)c1cccc(S(=O)(=O)Nc2ccc3c(c2)OCO3)c1,"inconclusive: 8.91 µM [inhibitor, single point]",–
CCN(CC)c1ccc(C=NCCNS(=O)(=O)c2ccc(C)cc2)cc1,"inconclusive: 79.4 µM [inhibitor, partial curve]",–
